Assay results taken from article PMC12136788.
The other results are listed elsewhere or left out.

B1: chr10:1038518:1038519:+_ENSG00000107937_ENST00000545048|hu_hu|hu_hu_hu_mus_False|48_58 (ssRNA)
RNA: GGGAGUUCUACAGUCCGACGAUCCAGUCUGUCAUGGUAAUUCUGUUGAGUAAAUUUGACUUUUCUCAUAUAAAAAUGUCUAAUGCGAUGUAUUUGGUAAUGUUUAUGAAUAACCGUUGGAGUCUUUCGUUGAGUCUUGGAUAACAACAGAGGAUUGAGCAUCA
B2: chr6:52671308:52671309:+_ENSMUSG00000004535_ENSMUST00000080723|mus_mus|FALSE|FALSE (ssRNA)
RNA: GGGAGUUCUACAGUCCGACGAUCCCACAUUUUGAAAGAUGACAUGGGCAAAAUUGGAAGUCUGCAAUUGGACUUCUUGAAAGGAUGUCAUUGUGAAUCGGUCAGGGCCUCCGCCCCGCACGCUACGCCGCGCCCCGAACCUCCCAACAGAGGAUUGAGCAUCA
B3: chr4:148554787:148554788:-_ENSMUSG00000063077_ENSMUST00000060537|mus_hu|FALSE|FALSE (ssRNA)
RNA: GGGAGUUCUACAGUCCGACGAUCUCUCAGCACAAGAAAAAAGAAAAGAGUACAGAGCAAUGGAGAUGGGGAACGGGAGAGCUAGAAAAGUGCUGGACAAGGAGGGAGAAGUAGUUAAGCCACAGGAUUACAUACAAGAGUCACCAACAGAGGAUUGAGCAUCA
B4: 118884368_118884488_153_3pUTR_ENSMUSG00000025577_ENSMUST00000026662|mouse|control|control (ssRNA)
RNA: GGGAGUUCUACAGUCCGACGAUCGAGCCGCUUGCUCAGGAUGCACUCGGCGGCGAAGACCUGCUCGCCCACGCUGCUCAGCUCCUCCAUGCCGCCGCCCGCCGCGGCCCGCGCCCCGCAGACCCCGGCUCACUGCUGCACACACAACAGAGGAUUGAGCAUCA
B5: chr11:9430111:9430112:+_ENSG00000205339_ENST00000379719|hu_hu|FALSE|FALSE (ssRNA)
RNA: GGGAGUUCUACAGUCCGACGAUCAUGGAUAAUGGCUUCUACAAUAUUUUCUCGAAUACAAUGGCGAUCUUCUUCUGGAAUAGUAUAAGGGGAUAUAUCCCCUGGUGCUGUUUCUCGAUCAGGCCAAUACUGUGUUAUCAUAUUCAACAGAGGAUUGAGCAUCA
B6: chr2:31460152:31460153:+_ENSMUSG00000026843_ENSMUST00000055244|mus_mus|motif|central (ssRNA)
RNA: GGGAGUUCUACAGUCCGACGAUCGUUCUGGAUCUUCUUAAUCAUUUCUCCGUUCCUUCCUAUGACAAUCCCAACAACAAACCGGGGCACAGACACCUCUAUACUACCUCCGCCUGCUCGGGAGGUGAAAUCGCUGCGCACACCCAACAGAGGAUUGAGCAUCA
B7: 45016481_45016601_1758_CDS_ENSMUSG00000036097_ENSMUST00000096053|mouse|control|control (ssRNA)
RNA: GGGAGUUCUACAGUCCGACGAUCUGAAUGCAAAGAUCCCCCAGAAUUUUUCCCUGACGAUUCAUUAGAAACAGCCUUAAUAGUCUUUGCUCUGUGUUCCUUGUGUUUGGAGGAUUCUGUAGAAUGCCCAGAACGUUCUUUUGACAACAGAGGAUUGAGCAUCA
B8: chr9:121621712:121621713:+_ENSMUSG00000032526_ENSMUST00000035113|mus_mus|FALSE|FALSE (ssRNA)
RNA: GGGAGUUCUACAGUCCGACGAUCCUUUGUGAGACUGCUUGUGUUGGCGUCUGCGAUGGUAGCUAAAUAAAUGAGAUUUCUAUGUAACACAUGCUGAUACUGGACGCACUCGUUCGCUCGGCCCUUAUUCUGAUACUCCACGAUCAACAGAGGAUUGAGCAUCA
B9: chr19:16212804:16212805:+_ENSG00000167460_ENST00000300933|hu_mus|hu_hu_hu_mus_False|28_28 (ssRNA)
RNA: GGGAGUUCUACAGUCCGACGAUCAACAAUUCUGGAGUGAAGGAAAGAUGUAACAUGGAACAGCAUUAAAGCUCAGUCAGAAGGCACAUGGGCAACAAUGAUCACCCCCCAAGCAUUGCUUGGAAUGCUUAAAGACAAUCUGUUCAACAGAGGAUUGAGCAUCA
B10: chr2:64323713:64323714:-_ENSG00000197329_ENST00000358912|hu_hu|FALSE|FALSE (ssRNA)
RNA: GGGAGUUCUACAGUCCGACGAUCGCUUUGUACUGACUGUGUAUCAGAAUUACUUUGACUUCCAGGAACCGUGUCAGUUACUACAAAAUCAAUGGGGCUUUCAGUCGACCGGCCAAUCUGAAACAUAUCGGUGUUGCUGUCAUGCAACAGAGGAUUGAGCAUCA
B11: 113976164_113977287_983_CDS_ENSMUSG00000040383_ENSMUST00000043160|mouse|control|control (ssRNA)
RNA: GGGAGUUCUACAGUCCGACGAUCGUGAACAAGACUGGAGAGGUAGCAGUGAACCAGAAGGUGGGAGUCAUCCAGGAUGGUGUUAAACCAGCGCCUCGUGGGGAGUAGAGCCUCUAGAUCAAUCAUCAGUUCGAUGAAUCUUUCCAACAGAGGAUUGAGCAUCA
B12: chr3:138219032:138219033:+_ENSMUSG00000028156_ENSMUST00000029803|mus_mus|motif|central (ssRNA)
RNA: GGGAGUUCUACAGUCCGACGAUCUGUUACACGAGGAAAAAAACAAAAGCAAAACAAAUGAAAAACUGAAAUCAGAAUCACGGAUGUUAUCAAGGAGGGAAGCAAAUAAAUUAAAUCUAGCAGCCAUCAGCAAGAGGACAGCAACAACAGAGGAUUGAGCAUCA
B13: chr14:72968675:72968676:-_ENSMUSG00000033487_ENSMUST00000089017|mus_mus|motif|central (ssRNA)
RNA: GGGAGUUCUACAGUCCGACGAUCGUACAGGACCUCUUCACUAAAAUCACUUACACCAUAGUCAUUUUUGGCUGAUAAUCGGAAUUUACAACCCAUUGCUGGUGAGAGUUUGGUAAUUUUAAAUUGCUUCUGUGAGCCCAUGUACAACAGAGGAUUGAGCAUCA
B14: chr1:160278953:160278954:-_ENSG00000122218_ENST00000241704|hu_mus|motif|central (ssRNA)
RNA: GGGAGUUCUACAGUCCGACGAUCCUGGGAGUCUGCGUCUUUGGGGAUGGUGUAUAGGUCGUAGGUACUGUUCUCGGGAUUGCUUGCUCUGGUGCAGAGCAGCACUGCGUUUUCUGCUGGAUUGUAUGACAUGUUGAAUACUGGCAACAGAGGAUUGAGCAUCA

What follows are binders tested against T1, UNK ZnF1-3 (human, UniProt Q9C0B0 31-174) (assay: nsRBNS (natural sequence RNA bind-n-seq); RBNS binding buffer (assumed for nsRBNS): 25 mM Tris pH 7.5, 150 mM KCl, 3 mM MgCl2, 0.01% Triton X-100, 500 ug/ml BSA, 20 U/ml SUPERase-In, 4 C; UNK is unkempt and MSI1 is Musashi-1; names of the RNAs are library labels; protein concentration not given here; high values mean tight binding).
T1 sequence: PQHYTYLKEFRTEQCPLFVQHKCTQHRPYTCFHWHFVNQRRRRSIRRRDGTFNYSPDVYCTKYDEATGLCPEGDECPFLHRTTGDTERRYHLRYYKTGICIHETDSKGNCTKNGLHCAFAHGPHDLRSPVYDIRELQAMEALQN

Binder | binding signal
B1 | 0.645 enrichment R
B2 | 1.14 enrichment R
B3 | 3.09 enrichment R
B4 | 0.711 enrichment R
B5 | 0.974 enrichment R
B6 | 0.837 enrichment R
B7 | 0.813 enrichment R
B8 | 0.74 enrichment R
B9 | 1.28 enrichment R
B10 | 0.548 enrichment R
B11 | 1.75 enrichment R
B12 | 2.45 enrichment R
B13 | 1.29 enrichment R
B14 | 0.568 enrichment R
